Test results from article PMC5681660, “Reduced hepatitis B and D viral entry using clinically applied drugs as novel inhibitors of the bile acid transporter NTCP” (Scientific Reports, 2017).
Structures can show the parent of a compound that is named as a salt. Where two headings read alike, the source gives them in different places. Starred links: 1 amine or outer side, 2 acyl side, 3 side chain; linkers in the order of their positions; H or OH if unused. Positions of bridges follow the written chain, without caps; N, C: chain ends. Non-standard residues stand in square brackets, D forms with d. Residues, ends and D or L forms follow the SMILES beside them. *: point of attachment. X1 = NC1=N[C@@H]([C@H](N[*:1])C(=O)[*:2])C[C@H](O)N1; ΔAla(Z-3-ureido) = NC(=O)N/C=C(\N)C(=O)O; β3hOrn = NCCC[C@H](N)CC(=O)*; Dap = NC[C@H](N)C(=O)O

How the values were obtained:
human NTCP [1] = molecular target: T1, human NTCP (Homo sapiens, UniProt Q14973); test: Screening fluorescent competitive Myrcludex B-FITC binding assay (96-well, 10 µM drug)
T1 sequence (Q14973 1-349): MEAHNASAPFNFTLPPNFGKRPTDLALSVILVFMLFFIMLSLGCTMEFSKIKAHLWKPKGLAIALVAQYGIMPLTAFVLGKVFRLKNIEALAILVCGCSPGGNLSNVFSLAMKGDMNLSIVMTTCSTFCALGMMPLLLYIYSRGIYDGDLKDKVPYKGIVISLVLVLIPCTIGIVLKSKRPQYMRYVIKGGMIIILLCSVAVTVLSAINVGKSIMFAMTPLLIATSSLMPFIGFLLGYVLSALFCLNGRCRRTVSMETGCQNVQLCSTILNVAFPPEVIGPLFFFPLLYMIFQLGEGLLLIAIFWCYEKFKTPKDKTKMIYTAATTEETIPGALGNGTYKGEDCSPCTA

human NTCP [2] = molecular target: T1, human NTCP; test: Screening taurocholate uptake assay (96-well, [14C]taurocholate, 10 µM drug); settings: for remaining activity at 10 µM: 10 min, read-out: %NTCP activity
[3] = Prestwick library screen, 10 µM drug, Myrcludex B-FITC binding
[4] = Prestwick library screen, Myrcludex B-FITC binding, 10 µM drug
[5] = Prestwick library screen, [14C]taurocholate uptake, 10 µM drug
[6] = 0.5 h, read-out: %NTCP binding, screen, 10 µM drug, Myrcludex B-FITC binding

| SMILES | remaining activity at 10 µM (human NTCP [1]; 0.5 h, read-out: %NTCP binding) [%] | remaining activity at 10 µM (human NTCP [2]) [%] | also measured |
| --- | --- | --- | --- |
| C=C1/C(=C\C=C2/CCC[C@]3(C)[C@@H]([C@H](C)CCCC(C)C)CC[C@@H]23)C[C@@H](O)C[C@@H]1O [Alfacalcidol] | 85.9 | 114 |  |
| O=C1Cc2cc(CCN3CCN(c4nsc5ccccc45)CC3)c(Cl)cc2N1 [Ziprasidone Hydrochloride] | 76.9 | 101 |  |
| Cc1cccn2c(=O)c(-c3nnn[nH]3)cnc12 [Pemirolast potassium] | 76.1 | 67.7 |  |
| NC[C@H]1O[C@H](O[C@H]2[C@H](O)[C@@H](O[C@H]3O[C@H](CO)[C@@H](O)[C@H](N)[C@H]3O)[C@H](N)C[C@@H]2N)[C@H](O)[C@@H](O)[C@@H]1O [Kanamycin A sulfate] | 69.3 | 85 |  |
| CS(=O)(=O)O.OC(CCN1CCCCC1)(c1ccccc1)c1ccccc1 [Pridinol methanesulfonate salt] |  |  | %NTCP binding (human NTCP [1]; [3]): 66.5192%; %NTCP activity (human NTCP [2]): 108.898% |
| CC(C)/N=c1\cc2n(-c3ccc(Cl)cc3)c3ccccc3nc-2cc1Nc1ccc(Cl)cc1 [Clofazimine] | 42.5 | 69.4 |  |
| O=C(CCCN1CCC(O)(c2ccc(Br)cc2)CC1)c1ccc(F)cc1 [Bromperidol] | 63.3 | 38.4 |  |
| Cl.N[C@@H]1CCCCN(c2c(F)cc3c(=O)c(C(=O)O)cn(C4CC4)c3c2Cl)C1 [Besifloxacin hydrochloride] |  |  | %NTCP binding (human NTCP [1]; [3]): 37.1462%; %NTCP activity (human NTCP [2]): 119.185% |
| CC(C)N1CCN(c2ccc(OCC3COC(Cn4cncn4)(c4ccc(Cl)cc4Cl)O3)cc2)CC1 (centres unmarked) [Terconazole] | 74.9 | 41 |  |
| CC(=O)O[C@]1(C(C)=O)CC[C@H]2[C@@H]3C=C(C)C4=CC(=O)CC[C@@H]4[C@H]3CC[C@@]21C [Nomegestrol acetate] | 85.4 | 69.7 |  |
| CC(NCCc1ccc(O)cc1)C(O)c1ccc(O)cc1 (centres unmarked) [Ritodrine hydrochloride] | 59.4 | 64.8 |  |
| O=C(O)c1cn(-c2ccc(F)cc2)c2cc(N3CCNCC3)c(F)cc2c1=O [Sarafloxacin] | 80 | 131 |  |
| CN(C)c1nc(N(C)C)nc(N(C)C)n1 [Altretamine] | 91.3 | 103 |  |
| Cc1cc(-c2ccccc2)nnc1NCCN1CCOCC1 [Minaprine dihydrochloride] | 114 | 95.5 |  |
| C=CCC1(CC(C)C)C(=O)NC(=O)NC1=O [Butalbital] | 74.4 | 27 |  |
| Cl.NC1CCN(c2nc3c(cc2F)c(=O)c(C(=O)O)cn3-c2ccc(F)cc2F)C1 (centres unmarked) [Tosufloxacin hydrochloride] |  |  | %NTCP binding (human NTCP [1]; [4]): 76.2932%; %NTCP activity (human NTCP [2]; [5]): 41.1377% |
| Nc1[nH]c(=O)ncc1F [Flucytosine] | 97.2 | 47.6 |  |
| COc1ccc(-c2cc(=S)ss2)cc1 [Anethole-trithione] |  | 68.9 | remaining activity at 10 µM (human NTCP [1]; 0.5 h, read-out: %NTCP binding, Prestwick library screen, Myrcludex B-FITC binding, 10 µM drug): 76.1% |
| COC(=O)C1=C(C#N)NC(C)=C(C(=O)OC(C)C)C1c1cccc([N+](=O)[O-])c1 (centres unmarked) [Nilvadipine] | 86.8 | 65.9 |  |
| CN(C)[C@@H]1C(O)=C(C(N)=O)C(=O)[C@@]2(O)C(O)=C3C(=O)c4c(O)cccc4[C@@](C)(O)[C@H]3C[C@@H]12 [Tetracycline hydrochloride] | 81.8 | 73 |  |
| Cc1nc2ccccn2c(=O)c1CCN1CCC(C(=O)c2ccc(F)cc2)CC1 [Pirenperone] | 90.3 | 97 |  |
| CN1CCN(C2=Nc3ccccc3Oc3ccc(Cl)cc32)CC1 [Loxapine succinate] | 93.1 | 48.7 |  |
| NC(=O)N/N=C/c1ccc([N+](=O)[O-])o1 [Nitrofural] | 77.8 | 54.3 |  |
| Cl.Clc1ccc(C(OCCN2CCCCC2)c2ccccc2)cc1 (centres unmarked) [Cloperastine hydrochloride] |  |  | %NTCP binding (human NTCP [1]; [3]): 76.1406%; %NTCP activity (human NTCP [2]): 95.7222% |
| Cc1cc(C2CCCCC2)n(O)c(=O)c1.NCCO [Ciclopirox ethanolamine] |  |  | %NTCP binding (human NTCP [1]; [3]): 84.4317%; %NTCP activity (human NTCP [2]; Prestwick library screen, 10 µM drug, [14C]taurocholate uptake): 102.959% |
| C=CC1=C(C(=O)O)N2C(=O)[C@@H](NC(=O)/C(=N\O)c3csc(N)n3)[C@H]2SC1 [Cefdinir] | 114 | 92 |  |

| SMILES | remaining activity at 10 µM (human NTCP [1]; 0.5 h, read-out: %NTCP binding) [%] | remaining activity at 10 µM (human NTCP [2]) [%] | also measured |
| --- | --- | --- | --- |
| CC(=O)OCC(=O)NCCCOc1cccc(CN2CCCCC2)c1 [Roxatidine Acetate HCl] |  | 37.2 | remaining activity at 10 µM (human NTCP [1]; [6]): 80.3% |
| COc1cc2c(cc1OC)C(C)NCC2.Cl (centres unmarked) |  |  | %NTCP binding (human NTCP [1]; [3]): 82.2306%; %NTCP activity (human NTCP [2]): 104.808% |
| OCCN1CCN(CCCN2c3ccccc3C=Cc3ccccc32)CC1 [Opipramol dihydrochloride] | 86.2 | 77.6 |  |
| CCC1NC(=O)c2cc(S(N)(=O)=O)c(Cl)cc2N1 (centres unmarked) [Quinethazone] | 83.1 | 89.8 |  |
| COc1ccccc1OCC(O)CN1CCN(CC(=O)Nc2c(C)cccc2C)CC1 (centres unmarked) [Ranolazine] | 93.2 | 93.3 |  |
| CCOC(=O)Nc1ccc2c(c1)N(C(=O)CCN1CCOCC1)c1ccccc1S2 [Moricizine hydrochloride] | 106 | 115 |  |
| NCCC[C@H](N)CC(=O)N[C@H]1CNC(=O)[C@H]([C@H]2C[C@H](O)NC(N)=N2)NC(=O)/C(=C/NC(N)=O)NC(=O)[C@H](CO)NC(=O)[C@H](CO)NC1=O.O=S(=O)(O)O [Viomycin sulfate] (β3hOrn-[Dap]SS[ΔAla(Z-3-ureido)][X1]; lactam 1-C) |  |  | %NTCP binding (human NTCP [1]; [3]): 91.0621%; %NTCP activity (human NTCP [2]): 118.632% |
| CC(=O)N(CC(O)CO)c1c(I)c(C(=O)NCC(O)CO)c(I)c(C(=O)NCC(O)CO)c1I (centres unmarked) [Iohexol] | 80.2 | 71.7 |  |
| O=C(Oc1cccc2cccnc12)c1ccccc1 [Benzoxiquine] |  | 99.1 | remaining activity at 10 µM (human NTCP [1]; [6]): 54.5% |
| COc1ccccc1OCC(O)COC(N)=O (centres unmarked) [Methocarbamol] | 76.9 | 75.9 |  |
| N=C(N)NC(=O)Cc1c(Cl)cccc1Cl [Guanfacine hydrochloride] | 54.1 | 70.9 |  |
| CC(=O)c1ccc(S(=O)(=O)NC(=O)NC2CCCCC2)cc1 [Acetohexamide] | 111 | 110 |  |
| CCc1c(C)[nH]c2c1C(=O)C(CN1CCOCC1)CC2 (centres unmarked) [Molindone hydrochloride] | 73.3 | 92 |  |
| CN1C(=O)CC(c2ccccc2)C1=O (centres unmarked) [Phensuximide] | 110 | 84.3 |  |
| Nc1nc(N)c2nc(-c3ccccc3)c(N)nc2n1 [Triamterene] | 106 | 138 |  |
| CN(C)CCOC(C)(c1ccccc1)c1ccccn1 (centres unmarked) [Doxylamine succinate] | 104 | 94.8 |  |
| CC(C)(Oc1ccc(Cl)cc1)C(=O)O [Clofibric acid] | 96.3 | 95.7 |  |
| CC(C)C(=O)c1c(C(C)C)nn2ccccc12 [Ibudilast] | 97.6 | 86.1 |  |
| CC1(C)S[C@@H]2[C@H](NC(=O)Cc3ccccc3)C(=O)N2[C@H]1C(=O)O.CC1(C)S[C@@H]2[C@H](NC(=O)Cc3ccccc3)C(=O)N2[C@H]1C(=O)O.c1ccc(CNCCNCc2ccccc2)cc1 [Benzathine benzylpenicillin] |  |  | %NTCP binding (human NTCP [1]; [4]): 89.656%; %NTCP activity (human NTCP [2]; [5]): 92.3561% |
| C#C[C@]1(O)CC[C@H]2[C@@H]3CCC4=CCCC[C@@H]4[C@H]3CC[C@@]21C [Lynestrenol] | 88.9 | 53.7 |  |
| Cc1ccc(C(=O)c2cc(O)c(O)c([N+](=O)[O-])c2)cc1 [Tolcapone] | 88.5 | 70.6 |  |
| CNNCc1ccc(C(=O)NC(C)C)cc1 [Procarbazine hydrochloride] | 89.4 | 58.4 |  |
| COc1cc2nc(N3CCN(C(=O)C4CCCO4)CC3)nc(N)c2cc1OC (centres unmarked) [Terazosin hydrochloride] | 85.9 | 89.1 |  |
| CN1CCc2c(c3ccccc3n2Cc2ccccc2)C1.O=S(=O)(O)c1cccc2c(S(=O)(=O)O)cccc12 [Mebhydroline 1,5-naphtalenedisulfonate] |  |  | %NTCP binding (human NTCP [1]; [3]): 98.573%; %NTCP activity (human NTCP [2]): 36.9909% |
| CCN(CC)CCCC(C)Nc1c2ccc(Cl)cc2nc2ccc(OC)cc12.Cl.Cl (centres unmarked) [Quinacrine dihydrochloride hydrate] |  |  | %NTCP binding (human NTCP [1]; screen, 10 µM drug, Myrcludex B-FITC binding): 104.564%; %NTCP activity (human NTCP [2]; screen, 10 µM drug, [14C]taurocholate uptake): 42.6745% |
| CCN(CC)CCOC(=O)C1(c2ccc([N+](=O)[O-])cc2)CCCC1.Cl [Nitrocaramiphen hydrochloride] |  |  | %NTCP binding (human NTCP [1]; [3]): 112.605%; %NTCP activity (human NTCP [2]): 106.74% |
